PubChem BioAssay AID488969 (Vanderbilt High Throughput Screening Facility, 2010)
Whole data set: some 110,000 compounds, median “z-score” near -0.1, cut for the highest 2% near 2. Some of the results follow. Active and inactive are the calls of the source.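 How the source made its calls: active means z-score in the third read window above 3 or below -3; inactive means the rest.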

The molecules below were run against Metabotropic glutamate receptor 8 (Rattus norvegicus) (UniProt P70579) (assay: mGluR8 Gi/Go-coupled signaling modulation – cell-based, rat, thallium flux, HTS, primary screen (AID 488969)). Settings: HEK293 rat mGluR8, GIRK (G protein-gated inwardly rectifying potassium channel) thallium flux, FluoZin2; at 10 µM; stronger effect = higher value; submaximal glutamate (EC20) added with thallium.
Chain of UniProt P70579 (P70579 whole entry, looked up): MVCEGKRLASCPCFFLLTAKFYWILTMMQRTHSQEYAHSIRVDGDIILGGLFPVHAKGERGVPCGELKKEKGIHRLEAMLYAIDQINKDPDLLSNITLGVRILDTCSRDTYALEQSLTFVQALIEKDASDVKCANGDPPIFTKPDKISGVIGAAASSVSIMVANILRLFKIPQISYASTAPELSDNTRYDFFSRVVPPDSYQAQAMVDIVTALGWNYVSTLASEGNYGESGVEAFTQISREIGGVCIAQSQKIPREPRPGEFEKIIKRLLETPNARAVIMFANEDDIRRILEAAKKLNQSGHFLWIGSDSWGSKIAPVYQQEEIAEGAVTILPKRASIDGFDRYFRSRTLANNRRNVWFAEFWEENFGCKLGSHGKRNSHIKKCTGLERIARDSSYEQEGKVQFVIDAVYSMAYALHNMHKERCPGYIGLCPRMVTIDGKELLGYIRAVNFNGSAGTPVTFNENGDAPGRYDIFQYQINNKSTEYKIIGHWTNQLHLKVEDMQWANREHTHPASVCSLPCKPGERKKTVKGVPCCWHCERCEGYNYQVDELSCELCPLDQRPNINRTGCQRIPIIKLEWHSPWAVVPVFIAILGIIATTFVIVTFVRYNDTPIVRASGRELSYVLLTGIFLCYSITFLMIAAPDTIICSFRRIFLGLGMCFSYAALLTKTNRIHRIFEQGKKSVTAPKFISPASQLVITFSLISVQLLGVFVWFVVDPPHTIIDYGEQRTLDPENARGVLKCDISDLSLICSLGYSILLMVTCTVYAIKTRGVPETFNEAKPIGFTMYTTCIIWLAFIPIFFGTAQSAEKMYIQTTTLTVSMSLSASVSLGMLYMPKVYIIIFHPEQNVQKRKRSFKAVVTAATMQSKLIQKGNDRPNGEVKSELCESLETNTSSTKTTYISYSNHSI

Row | Compound | z-score
1 | O=C(Nc1ncc(Cc2ccccc2Cl)s1)C1CCCO1 (stereo unspecified) | 0.12
2 | CCOc1ccc(NC(=O)C2CCN(S(=O)(=O)c3c(C)n[nH]c3C)CC2)cc1 | -0.783
3 | CCOC(=O)NCC(C)(C)CNC(=O)OCC | -0.0942
4 | O=C(CCN1C(=O)COc2ccccc21)NCc1cccs1 | 0.171
5 | Cc1cccc(NC(=O)CCCN2C(=O)c3ccccc3C2=O)n1 | 0.0335
6 | O=C(NC(=S)NCc1ccccc1)c1ccccc1F | 1.93
7 | Nc1nc(NCC2CCCO2)nc(Nc2ccccc2)c1[N+](=O)[O-] (stereo unspecified) | -0.232
8 | Nc1nc(NCc2ccccc2)nc(Nc2ccc(F)cc2)c1[N+](=O)[O-] | -0.178
9 | CC(C)=CC/C=C1\CCC(C(=O)O)C(C(=O)O)C1 (stereo unspecified) | 0.0153
10 | CCc1ccccc1N(CC(=O)OC)S(C)(=O)=O | -0.0143
11 | O=C(CCNC(=O)c1ccccc1Cl)Nc1cccc(C(F)(F)F)c1 | -0.204
12 | CN(C)/C=C1/C=C(c2ccccc2)OC1=O | -0.519
13 | CCN1C(=O)C(CC(=O)Nc2ccc(OC)cc2)N(Cc2ccc3c(c2)OCO3)C1=S (stereo unspecified) | -0.389
14 | COc1cc(S(=O)(=O)Nc2ccc(C)cc2)ccc1N=Cc1c(C)[nH]n(-c2ccccc2)c1=O | -0.093
15 | COc1cc2c(C#N)c(N3CCOCC3)nc(N)c2c(N)n1 | 0.122
16 | C=CCNC(=O)NC(=O)CSc1nc2cc([N+](=O)[O-])ccc2n1-c1cccc(C(F)(F)F)c1 | 2.75

Row | Compound | z-score
17 | CSc1ccc(CNc2ccccc2)cc1 | -0.243
18 | Nn1c(SCC(=O)Nc2ccc3c(c2)OCO3)nnc1C1CC1 | -0.116
19 | Cc1cccc(N=C2NC(=O)/C(=C/C=C/c3ccco3)S2)c1C | active: 3
20 | CCCCCn1c(=O)[nH]c2cc(C(=O)NCCc3ccc(OC)c(OC)c3)ccc2c1=O | 0.552
21 | COC(=O)C(C(=O)OC)C(C[N+](=O)[O-])c1ccc(O)c(OC)c1 (stereo unspecified) | -0.172
22 | O=C(O)c1cnn2c(C(F)F)cc(C(F)F)nc12 | -0.0339
23 | COc1ccc2[nH]c(C)c(CCN(Cc3cccs3)C(=S)Nc3cccc(F)c3)c2c1 | 1.63
24 | CCc1cn(S(=O)(=O)c2ccccc2OC)nc1N | -0.998
25 | COc1cccc(C(=O)N/N=C(\CC(C)C)c2ccccc2)c1 | 1.93
26 | O=c1c(Cl)c(N2CCN(c3ccc(F)cc3)CC2)cnn1-c1nc2ccccc2s1 | -0.0847
27 | CN(C)CCNC(=O)c1ccc2c(c1)N(Cc1ccc(F)cc1)CCS2 | 1.85
28 | O=C(CSc1nc2ccccc2[nH]1)Nc1ccc2c(c1)OCCO2 | -0.394
29 | N#Cc1cnn(-c2ncnc3sc(-c4ccccc4)cc23)c1N | -0.198
30 | CC1(C)CC(=O)c2sc(NC(=O)CN3CCOCC3)nc2C1 | 0.431
31 | Cc1ccc(CNC(=S)Nc2ccc(OC(F)F)cc2C)cc1 | -0.531
